#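 48-hour exposure; five concentrations; linearly interpolated endpoints. TGI denotes the concentration required for complete inhibition of growth.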 The source holds more than one record for some entries. They are shown here; other results are not. An entry can have further records. Records of one sample usually come from different ranges of test concentrations, which the source does not state; a value can be the end of its range.
# System: MDA-MB-468 breast
# Experiment: NCI-60 cell line screen, 48 h
compound,measurement,value
CC(=O)O[C@H]1C(=O)[C@@]2(C)[C@H]([C@H](OC(=O)c3ccccc3)[C@]3([O-])C[C@H](OC(=O)[C@H]([O-])[C@@H](NC(=O)c4ccccc4)c4ccccc4)C(C)=C1C3(C)C)[C@]1(OC(C)=O)CO[C@@H]1C[C@@H]2[O-].[Fe+3],TGI,178 nM and 12.5 µM

# Source: PubChem BioAssay (NCI)
